Cell count data for 14 compounds are collected here from the supplement of paper PMC4604168 (melanoma cell lines).

This is one part of the list. Most values come without repeats; read them as rough.
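Also: cell number obtained by counting DAPI-stained nuclei in high-throughput microscope images with image analysis software, screen run in 1,536-well plates.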

For the test, the system named is MEL-HO. The test is described as follows: cell count relative to DMSO control; melanoma cells; higher = more viable cells. The note with it: library dose: low library concentration; 72 h.
In turn, `N#CC[C@H](C1CCCC1)n1cc(-c2ncnc3[nH]ccc23)cn1` [ruxolitinib] + CCc1ccc(CCOc2ccc(CC3SC(=O)NC3=O)cc2)nc1 [pioglitazone] (first compound 1 µM, partner dose 2 µM) yielded a cell count of 105%.
The same measure for `N#CC[C@H](C1CCCC1)n1cc(-c2ncnc3[nH]ccc23)cn1` [ruxolitinib] + Cn1cc(/C=C2\C(=O)Nc3cccnc32)c2ccccc21 [GW441756] (first compound 1 µM, partner dose 0.4 µM): 87.3%; for `CC[C@]1(O)C[C@H]2CN(CCc3c([nH]c4ccccc34)[C@@](C(=O)OC)(c3cc4c(cc3OC)N(C=O)[C@H]3[C@@](O)(C(=O)OC)[C@H](OC(C)=O)[C@]5(CC)C=CCN6CC[C@]43[C@@H]65)C2)C1` [vincristine] + COc1cc2c(Oc3ccc4[nH]c(C)cc4c3F)ncnc2cc1OCCCN1CCCC1 [cediranib] (first compound 0.0001 µM, partner dose 0.4 µM): 106%; for `Cc1cc(Nc2cc(N3CCN(C)CC3)nc(Sc3ccc(NC(=O)C4CC4)cc3)n2)n[nH]1` [Tozasertib] + CC1(C)NC(=O)N(c2ccc([N+](=O)[O-])c(C(F)(F)F)c2)C1=O [nilutamide] (first compound 0.006 µM, partner dose 1 µM): 93.8%.
With `N#CC[C@H](C1CCCC1)n1cc(-c2ncnc3[nH]ccc23)cn1` [ruxolitinib] + COc1ccc(COc2ccc(Cc3cnc(N)nc3N)cc2OC)cc1 [GW2580] (first compound 1 µM, partner dose 1 µM), the cell count came to 114%.
As to `N#CC[C@H](C1CCCC1)n1cc(-c2ncnc3[nH]ccc23)cn1` [ruxolitinib] + OCCn1cc(-c2cnc3nnn(Cc4ccc5ncccc5c4)c3n2)cn1 [PF04217903] (first compound 1 µM, partner dose 1 µM), the cell count was determined as 91.3%.
The same measure for `N#CC[C@H](C1CCCC1)n1cc(-c2ncnc3[nH]ccc23)cn1` [ruxolitinib] + NCC(=O)Nc1ccc(-n2nc(C(F)(F)F)cc2-c2ccc3c(ccc4ccccc43)c2)cc1 [OSU03012] (first compound 1 µM, partner dose 1 µM): 93.8%; for `N#CC[C@H](C1CCCC1)n1cc(-c2ncnc3[nH]ccc23)cn1` [ruxolitinib] + O=C(O)c1ccc(-c2c[nH]c3ncc(-c4ccccc4)cc23)cc1C1CCCC1 [GSK650394] (first compound 1 µM, partner dose 0.16 µM): 106%; for `N#CC[C@H](C1CCCC1)n1cc(-c2ncnc3[nH]ccc23)cn1` [ruxolitinib] + N#Cc1c(O)c2c(-c3ccc(-c4ccccc4O)cc3)csc2[nH]c1=O [A769662] (first compound 1 µM, partner dose 2 µM): 102%.
As to `N#CC[C@H](C1CCCC1)n1cc(-c2ncnc3[nH]ccc23)cn1` [ruxolitinib] + CN(C)S(=O)(=O)c1ccc2c(c1)/C(=C/c1cc3c([nH]1)CCCC3)C(=O)N2 [SU6656] (first compound 1 µM, partner dose 0.4 µM), the cell count was 98.3%.
In the case of `Cc1cc(Nc2cc(N3CCN(C)CC3)nc(Sc3ccc(NC(=O)C4CC4)cc3)n2)n[nH]1` [Tozasertib] + Cc1cc(N2CCOCC2)cc2[nH]c(-c3c(NC[C@@H](O)c4cccc(Cl)c4)cc[nH]c3=O)nc12 [BMS536924] (first compound 0.006 µM, partner dose 0.2 µM), the cell count came to 85.1%.
The result for `Cc1cc(Nc2cc(N3CCN(C)CC3)nc(Sc3ccc(NC(=O)C4CC4)cc3)n2)n[nH]1` [Tozasertib] + COc1ccc2c(c1)CCC1C2CCC2(C)C(NCCCCCCN3C(=O)C=CC3=O)CCC12 [U73122] (first compound 0.006 µM, partner dose 0.4 µM) reads 89.5%; that for `CC[C@]1(O)C[C@H]2CN(CCc3c([nH]c4ccccc34)[C@@](C(=O)OC)(c3cc4c(cc3OC)N(C=O)[C@H]3[C@@](O)(C(=O)OC)[C@H](OC(C)=O)[C@]5(CC)C=CCN6CC[C@]43[C@@H]65)C2)C1` [vincristine] + O=C1NC(=O)/C(=C/c2ccc(-c3ccc(F)cc3O)o2)S1 [AS252424] (first compound 0.0001 µM, partner dose 1 µM), 120%.
In turn, `Cc1cc(Nc2cc(N3CCN(C)CC3)nc(Sc3ccc(NC(=O)C4CC4)cc3)n2)n[nH]1` [Tozasertib] + O=C(Nc1ccccc1)c1cc([N+](=O)[O-])ccc1Cl [GW9662] (first compound 0.006 µM, partner dose 2 µM) gave a cell count of 81.5%.
